Measured values taken from PubChem BioAssay AID1865 (National Center for Advancing Translational Sciences (NCATS), 2009).
The campaign covered roughly 280,000 compounds. About 540 (0.19%) were called active. The inconclusive results got no clear call from the source; some entries with a clear call stand among them for comparison. Calls come from the whole dose curve; as a rule, active = well fitted activation curve with a large enough effect; inconclusive = small, poorly fitted or top-dose-only effect; inactive = flat fitted curve, though single readings scatter. Potencies of inconclusive entries are doubtful fits and often do not repeat.

Assay: Quantitative High-Throughput Screen for Regulators of Epigenetic Control; note: nearly all actives have a fitted effect of over 60% in size; for GFP activation: % of control where 0% means no effect
Details: murine LDR cells, GFP reporter derepression, 30 h; GFP activation: at 53.9 µM (top of the series)
Method in brief: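 Reporter derepression read as number of fluorescent GFP-positive objects, 20-120 um in size, counted by laser-scanning cytometer. Mouse LDR line with an epigenetically silenced CMV-GFP locus; compound incubation 30 h, 37 C.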
Potency is the fitted concentration of half-maximal effect; tags give direction and shape of the fitted curve.

| SMILES | Potency | GFP activation |
| --- | --- | --- |
| c1ccc2c(-c3[nH]ncc3CNCCCn3ncc4ccccc43)cccc2c1 | inconclusive: 11.2 µM [activator, single point] | – |
| Cc1cc2c(cc1S(=O)(=O)N1CCc3ccccc31)NC(=O)CO2 | – | inactive: -0.0598% |
| CN1CCN(c2nc(-c3ccc(N(C)C)cc3)nc3ccccc23)CC1 | inconclusive: 14.1 µM [activator, single point] | – |
| COCCNC(=S)NN=C1CCCCCC1 | inconclusive: 31.6 µM [activator, single point] | – |
| CC1CCc2c(sc(NC(=O)C3CCCO3)c2C#N)C1 (centres undefined) | – | inactive: 0% |
| COc1ccc(S(=O)(=O)N2CCC(c3nnc(-c4ccccc4C)o3)CC2)c(OC)c1 | inconclusive: 31.6 µM [activator, single point] | – |
| COc1cc(N2CCCC2)c(OC)cc1/C=c1/sc2nc3ccccc3n2c1=O | active: 2.82 µM | – |
| Cc1ccccc1NCC(=O)c1ccc(Br)cc1 | inconclusive: 31.6 µM [activator, single point] | – |
| CCCCN1C(=O)/C(=C/C=C2\N(C)c3ccccc3C2(C)C)SC1=S | active: 2.51 µM | – |
| N#CCC(=O)N/N=C/c1cn(Cc2cccc3ccccc23)c2ccccc12 | inconclusive: 31.6 µM [activator, single point] | – |
| COc1ccc(-n2nc(C(=O)N3CCN(c4cccc(C(F)(F)F)c4)CC3)c3c4ccccc4n(C)c3c2=O)cc1Cl | – | inactive: -2.14% |
| Cc1ccc(/C(C#N)=C\c2ccc(N3CCOCC3)o2)cc1 | inconclusive: 31.6 µM [activator, single point] | – |
| CCOC(=O)C1=C(C)NC2=C(C(=O)c3ccccc32)C1c1ccc([N+](=O)[O-])o1 (centres undefined) | – | inactive: 1.49% |
| O=C(NCc1ccco1)c1c[nH]c2ccc(S(=O)(=O)Nc3ccc(F)cc3F)cc2c1=O | – | inactive: 3.62% |
| Cn1c(SCC(=O)N/N=C/c2ccc([N+](=O)[O-])s2)nnc1-c1ccccc1 | inconclusive: 28.2 µM [activator, single point] | – |
| CCOC(=O)/C=C/CCC/C=C/C(=O)c1ccccc1 | inconclusive: 35.5 µM [activator, single point] | – |
| Cc1ccc2cccnc2c1NC(=S)NC(=O)c1ccccc1 | inconclusive: 28.2 µM [activator, single point] | – |
| NC(=S)N=Nc1c(O)n(Cc2ccc(F)cc2)c2ccccc12 | inconclusive: 28.2 µM [activator, single point] | – |
| Cc1ccc(CCNC(=O)c2cc3sccc3n2Cc2ccc(F)cc2)cc1 | inconclusive: 6.31 µM [activator, single point] | – |
| Cc1ccc(C(=O)CC(SCC(=O)O)c2ccc([N+](=O)[O-])cc2)cc1 (centres undefined) | inconclusive: 35.5 µM [activator, single point] | – |
| N[C@@]1(C(=O)O)CN[C@@H](C(=O)O)C1 | – | inactive: 1.05% |
| CCc1ccc(S(=O)(=O)c2c[nH]c3cc(OC)c(OC)cc3c2=O)cc1 | – | inactive: 1.78% |
| COc1ccc2cc3cc(C(=O)NCCc4ccccc4)sc3nc2c1Cl | inconclusive: 22.4 µM [activator, single point] | – |

| SMILES | Potency | GFP activation |
| --- | --- | --- |
| COc1cc(/C=C(\C#N)c2nc3ccc(C)cc3[nH]2)ccc1OC(C)C | inconclusive: 31.6 µM [activator, single point] | – |
| Cc1ccccc1-c1n[nH]c(=S)n1Cc1ccccc1 | – | inactive: -4.05% |
| Cc1ccc2cccc(NC(=S)NC(=O)c3c(Br)cnn3C)c2n1 | inconclusive: 35.5 µM [activator, single point] | – |
| O=C1CCCC=C1[C@H](O)CCCCBr | – | inactive: 1.14% [at 10.1 µM] |
| COc1cc([C@H]2c3[nH]c4ccccc4c3C[C@H]3C(=O)N4[C@@H](c5cc(OC)c(OC)c(OC)c5)c5[nH]c6ccccc6c5C[C@H]4C(=O)N23)cc(OC)c1OC | inconclusive: 35.5 µM [activator, single point] | – |
| O=C(c1ccc2c(=O)n3c(nc2c1)CCCCC3)N1CCN(C(c2ccccc2)c2ccccc2)CC1 | – | inactive: 0.072% |
| Cc1ccc2nc(/C(C#N)=C/c3ccc(-c4ccc(F)cc4F)o3)[nH]c2c1 | inconclusive: 14.1 µM [activator, single point] | – |
| O=C(Nc1cc(S(=O)(=O)Nc2ccc(Cl)cc2)ccc1N1CCCCC1)c1ccc(F)cc1Cl | inconclusive: 22.4 µM [activator, single point] | – |
| CN(C)c1ccc(/C=C(\C#N)c2nc3ccccc3c(=O)[nH]2)cc1 | active: 6.31 µM | – |
| Cc1ccc(S(=O)(=O)Nc2cc3c(C(=O)OCc4ccccc4)c(C)oc3c3ccccc23)cc1 | inconclusive: 35.5 µM [activator, single point] | – |
| CCOC(=O)c1cccc(NC(=O)NCc2ccc3c(c2)CCN3C(=O)CC)c1 | inconclusive: 7.08 µM [activator, single point] | – |
| Cc1ccc(Cl)cc1NC(=O)Cn1cc(S(=O)(=O)Cc2ccccc2Cl)c2ccccc21 | inconclusive: 31.6 µM [activator, single point] | – |
| CCc1ccc(C(=O)c2cn(CC(=O)Nc3ccc(OC)c(Cl)c3)c3nc(C)ccc3c2=O)cc1 | active: 15.8 µM | – |
| Cc1sc2nc(CSCC(=O)Nc3c(Cl)cccc3Cl)[nH]c(=O)c2c1C | inconclusive: 31.6 µM [activator, single point] | – |
| NC(=O)c1cc2c3ccccc3ccn2c1-c1ccccc1 | inconclusive: 31.6 µM [activator, single point] | – |
| Oc1c(C(c2ccc(Cl)cc2)N2CCOCC2)sc2nc(-c3ccco3)nn12 (centres undefined) | inconclusive: 0.158 µM [activator, full curve, poor fit] | – |
| O=C(NCc1ccco1)/C(=C\c1ccco1)NC(=O)c1cccs1 | inconclusive: 17.8 µM [activator, single point] | – |
| O=C(CSc1ccccn1)NC1CCCC1 | inconclusive: 6.31 µM [activator, single point] | – |
| CCSc1ncc(Cl)c(C(=O)Nc2sc(C(C)=O)c(C)c2C(=O)OC)n1 | inconclusive: 35.5 µM [activator, single point] | – |
| CC(=O)c1cccc(Nc2c3c(nc4nc(-c5cccs5)nn24)CCCC3)c1 | – | inactive: -1.69% |
| O=C1CSC(=O)N1CC(O)COc1ccc(Cl)cc1 (centres undefined) | inconclusive: 3.16 µM [activator, single point] | – |
| CC(=O)Nc1cccc(-c2nnc(SCC(=O)c3cc([N+](=O)[O-])ccc3Br)o2)c1 | inconclusive: 11.2 µM [activator, partial curve] | – |
| O=C(O)c1ccc(-n2ccnc2)c([N+](=O)[O-])c1 | – | inactive: 0% |

| SMILES | Potency | GFP activation |
| --- | --- | --- |
| COc1ccc(-c2cc(-c3ccccc3)nc(SCC(=O)Nc3nccs3)c2C#N)cc1 | inconclusive: 3.98 µM [activator, full curve] | – |
| O=C(COc1ccc(C(=O)c2ccccc2)cc1)NCC1CCCCC1 | inconclusive: 3.55 µM [activator, single point] | – |
| Fc1ccc(-n2ncc3c(Nc4ccc(Oc5ccccc5)cc4)ncnc32)cc1 | – | inactive: 2.05% |
| Cc1ccccc1-n1c(Cc2cccs2)n[nH]c1=S | – | inactive: -2.33% |
| CC(C)c1ccc(Nc2cc(C(=O)NCCc3ccccc3)c3ccccc3n2)cc1 | – | inactive: 1.56% |
| COCCn1c(=NC(=O)c2cc3ccccc3oc2=O)sc2cc(S(N)(=O)=O)ccc21 | inconclusive: 31.6 µM [activator, single point] | – |
| Cc1cccc(C)c1OCC(=O)N/N=C/C=C/c1ccco1 | inconclusive: 31.6 µM [activator, single point] | – |
| O=C1COc2ccc(C(=O)CSc3nnc(-c4cccs4)n3Cc3ccccc3)cc2N1 | inconclusive: 35.5 µM [activator, single point] | – |
| COC(=O)c1c(NC(=O)/C=C/c2ccco2)sc2c1CCC2 | inconclusive: 31.6 µM [activator, single point] | – |
| COCCCNC(=O)c1sc2nc(C)c(C(=O)Nc3ccc(C)cc3C)c(-c3ccccc3Cl)c2c1N | – | inactive: 1.39% |
| O=C(/C=C/c1ccccc1)c1ccccn1 | inconclusive: 31.6 µM [activator, single point] | – |
| COc1cc(C(=O)O)nc2ccc([N+](=O)[O-])cc12 | – | inactive: -1.31% |
| COc1ccc(C2=NS(=O)(=O)N(C)C(C(=O)N(C)Cc3ccccc3)=C2)cc1OC | inconclusive: 15.8 µM [activator, single point] | – |
| CC(=O)C(=Cc1cn(-c2ccccc2)nc1-c1ccccc1)C(C)=O | inconclusive: 25.1 µM [activator, single point] | – |
| CCOc1ccc(S(=O)(=O)Nc2cccc(OC)c2)c2cccnc12 | – | inactive: -1.08% |
| Fc1ccccc1COc1ccc(Br)cc1CNCC1CCCO1 (centres undefined) | – | inactive: -2.56% |
| Cc1cc(C)cc(NC(=O)Cn2c(=O)oc3cc(S(=O)(=O)N4CCC(C)CC4)ccc32)c1 | inconclusive: 15.8 µM [activator, partial curve] | – |
| COCCOC(=O)c1ccc(NC(=O)COc2ccc([N+](=O)[O-])cc2)cc1 | – | inactive: 3.91% |
| COC(=O)c1sccc1S(=O)(=O)N(CC(=O)NCc1ccc(C)cc1)c1ccc(C)c(C)c1 | – | inactive: 4.41% |
| CNc1nc(-c2ccc(N(C)C)cc2)nc2ccccc12 | inconclusive: 35.5 µM [activator, single point] | – |
| O=C(/N=C1/c2ccccc2CN1c1ccccc1)Nc1ccccc1 | inconclusive: 35.5 µM [activator, single point] | – |
| COc1ccc(OC)c(C(=O)CSc2ncc3c(n2)-c2ccccc2N(Cc2ccccc2C)S3(=O)=O)c1 | inconclusive: 10 µM [activator, partial curve] | – |
| CC(=O)c1cc(NC(=O)c2cccc(C(F)(F)F)c2)c(=O)oc1C | inconclusive: 3.16 µM [activator, single point] | – |
